# Some of the results follow.
# B1: LecB LY19 (Pseudomonas aeruginosa) (protein)
# chain: MATQGVFTLPANTQFGVTAFANSAGTQTVNVQVNNETVATFTGQSTNNGIIGSKVLNSGGGGKVQILVSVNGRSSDLVSAQVILANELNFALVGSEDSTDNDYNDAVVVINWPLG
# How the values were obtained:
# Test in all cases: glycan array binding signal (z-score within array); higher = stronger binding
# Settings in all cases: glycan notation: IUPAC condensed, linker removed
# [1] = biological target: Man(a1-2)Man(a1-3)[Man(a1-2)Man(a1-6)]Man(a1-6)[Man(a1-2)Man(a1-2)Man(a1-3)]Man
# How it was run: (§1)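 Glycan array data were curated from 3228 arrays in the Consortium for Functional Glycomics database and kept only where the protein sequence was available. Glycan names were converted to IUPAC-condensed notation, and columns mapping to the same glycan were averaged. The binding signal is a within-array Z-score, averaged across arrays of the same protein sequence at different concentrations or buffers and across linkers. Negative Z-scores can be read as non-binding.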
# [2] = biological target: Man(a1-2)Man(a1-3)[Man(a1-2)Man(a1-6)]Man(a1-6)[Man(a1-2)Man(a1-2)Man(a1-3)]Man(b1-4)GlcNAc(b1-4)GlcNAc
# How it was run: as §1
# [3] = biological target: Man(a1-2)Man(a1-3)[Man(a1-6)]Man(a1-6)[Man(a1-2)Man(a1-3)]Man(b1-4)GlcNAc(b1-4)GlcNAc
# How it was run: as §1
# [4] = biological target: Man(a1-2)Man(a1-6)[Man(a1-3)]Man(a1-6)[Man(a1-2)Man(a1-2)Man(a1-3)]Man
# How it was run: as §1
# [5] = biological target: Man(a1-2)Man(a1-6)[Man(a1-3)]Man(a1-6)[Man(a1-2)Man(a1-2)Man(a1-3)]Man(b1-4)GlcNAc(b1-4)GlcNAc
# How it was run: as §1
# Man(a1-3)[Man(a1-6)]Man = biological target: Man(a1-3)[Man(a1-6)]Man
# How it was run: as §1
# [6] = biological target: Man(a1-3)[Man(a1-6)]Man(a1-6)[Man(a1-2)Man(a1-3)]Man(b1-4)GlcNAc(b1-4)GlcNAc
# How it was run: as §1
# [7] = biological target: Man(a1-3)[Man(a1-6)]Man(a1-6)[Man(a1-3)]Man
# How it was run: as §1
# [8] = biological target: Man(a1-3)[Man(a1-6)]Man(a1-6)[Man(a1-3)]Man(b1-4)GlcNAc(b1-4)GlcNAc
# How it was run: as §1
# [9] = biological target: Man(a1-3)[Man(a1-6)]Man(b1-4)GlcNAc(b1-4)GlcNAc
# How it was run: as §1
# [10] = biological target: Man(a1-3)[Man(a1-6)]Man(b1-4)GlcNAc(b1-4)[Fuc(a1-6)]GlcNAc
# How it was run: as §1
# Man(a1-6)Man = biological target: Man(a1-6)Man
# How it was run: as §1
# Man(b1-4)GlcNAc = biological target: Man(b1-4)GlcNAc
# How it was run: as §1
# MurNAc(b1-4)GlcNAc = biological target: MurNAc(b1-4)GlcNAc
# How it was run: as §1
# Neu5Ac(a2-3)Gal = biological target: Neu5Ac(a2-3)Gal
# How it was run: as §1
# [11] = biological target: Neu5Ac(a2-3)Gal(b1-3)GalNAc
# How it was run: as §1
# [12] = biological target: Neu5Ac(a2-3)Gal(b1-3)GalNAc(b1-3)Gal(a1-4)Gal(b1-4)Glc
# How it was run: as §1
# [13] = biological target: Neu5Ac(a2-3)Gal(b1-3)GalNAc(b1-4)Gal(b1-4)Glc
# How it was run: as §1
# [14] = biological target: Neu5Ac(a2-3)Gal(b1-3)GalNAc(b1-4)[Neu5Ac(a2-3)]Gal(b1-4)Glc
# How it was run: as §1
# [15] = biological target: Neu5Ac(a2-3)Gal(b1-3)GalNAc(b1-4)[Neu5Ac(a2-8)Neu5Ac(a2-3)]Gal(b1-4)Glc
# How it was run: as §1
# [16] = biological target: Neu5Ac(a2-3)Gal(b1-3)GalNAc6S
# How it was run: as §1
# [17] = biological target: Neu5Ac(a2-3)Gal(b1-3)GlcNAc
# How it was run: as §1
# [18] = biological target: Neu5Ac(a2-3)Gal(b1-3)GlcNAc(b1-2)Man
# How it was run: as §1
# [19] = biological target: Neu5Ac(a2-3)Gal(b1-3)GlcNAc(b1-2)Man(a1-3)[GlcNAc(b1-4)][Neu5Ac(a2-3)Gal(b1-3)GlcNAc(b1-2)Man(a1-6)]Man(b1-4)GlcNAc(b1-4)GlcNAc
# How it was run: as §1
# [20] = biological target: Neu5Ac(a2-3)Gal(b1-3)GlcNAc(b1-2)Man(a1-3)[Neu5Ac(a2-3)Gal(b1-3)GlcNAc(b1-2)Man(a1-6)]Man(b1-4)GlcNAc(b1-4)GlcNAc
# How it was run: as §1
# [21] = biological target: Neu5Ac(a2-3)Gal(b1-3)GlcNAc(b1-2)[Neu5Ac(a2-3)Gal(b1-3)GlcNAc(b1-4)]Man(a1-6)[Neu5Ac(a2-3)Gal(b1-3)GlcNAc(b1-2)Man(a1-3)]Man(b1-4)GlcNAc(b1-4)GlcNAc
# How it was run: as §1
# [22] = biological target: Neu5Ac(a2-3)Gal(b1-3)GlcNAc(b1-3)Gal(b1-3)GlcNAc
# How it was run: as §1
# [23] = biological target: Neu5Ac(a2-3)Gal(b1-3)GlcNAc(b1-3)Gal(b1-4)GlcNAc
# How it was run: as §1
# [24] = biological target: Neu5Ac(a2-3)Gal(b1-3)GlcNAc(b1-3)GalNAc
# How it was run: as §1
# [25] = biological target: Neu5Ac(a2-3)Gal(b1-3)GlcNAc(b1-6)GalNAc
# How it was run: as §1
# [26] = biological target: Neu5Ac(a2-3)Gal(b1-3)GlcNAc6S
# How it was run: as §1
# [27] = biological target: Neu5Ac(a2-3)Gal(b1-3)[Fuc(a1-4)]GlcNAc
# How it was run: as §1
# [28] = biological target: Neu5Ac(a2-3)Gal(b1-3)[Fuc(a1-4)]GlcNAc(b1-3)Gal(b1-3)[Fuc(a1-4)]GlcNAc
# How it was run: as §1
# [29] = biological target: Neu5Ac(a2-3)Gal(b1-3)[Fuc(a1-4)]GlcNAc(b1-3)Gal(b1-4)[Fuc(a1-3)]GlcNAc
# How it was run: as §1
# [30] = biological target: Neu5Ac(a2-3)Gal(b1-3)[GlcNAc(b1-6)]GalNAc
# How it was run: as §1
# [31] = biological target: Neu5Ac(a2-3)Gal(b1-3)[Neu5Ac(a2-6)]GalNAc
# How it was run: as §1
# [32] = biological target: Neu5Ac(a2-3)Gal(b1-3)[Neu5Ac(a2-6)]GlcNAc(b1-3)[Fuc(a1-3)[Gal(b1-4)]GlcNAc(b1-6)]Gal(b1-4)Glc
# How it was run: as §1
binder,measurement,setting,value
B1,glycan array binding signal (z-score),[1],2.32
same,glycan array binding signal (z-score),[2],-0.454
same,glycan array binding signal (z-score),[3],1.3
same,glycan array binding signal (z-score),[4],1.45
same,glycan array binding signal (z-score),[5],1.39
same,glycan array binding signal (z-score),Man(a1-3)[Man(a1-6)]Man,2.19
same,glycan array binding signal (z-score),[6],1.29
same,glycan array binding signal (z-score),[7],-0.382
same,glycan array binding signal (z-score),[8],1.17
same,glycan array binding signal (z-score),[9],1.96
same,glycan array binding signal (z-score),[10],2.09
same,glycan array binding signal (z-score),Man(a1-6)Man,-0.329
same,glycan array binding signal (z-score),Man(b1-4)GlcNAc,-0.467
same,glycan array binding signal (z-score),MurNAc(b1-4)GlcNAc,-0.549
same,glycan array binding signal (z-score),Neu5Ac(a2-3)Gal,-0.559
same,glycan array binding signal (z-score),[11],-0.46
same,glycan array binding signal (z-score),[12],-0.536
same,glycan array binding signal (z-score),[13],-0.48
same,glycan array binding signal (z-score),[14],-0.508
same,glycan array binding signal (z-score),[15],-0.539
same,glycan array binding signal (z-score),[16],-0.56
same,glycan array binding signal (z-score),[17],-0.516
same,glycan array binding signal (z-score),[18],-0.543
same,glycan array binding signal (z-score),[19],-0.407
same,glycan array binding signal (z-score),[20],-0.506
same,glycan array binding signal (z-score),[21],-0.314
same,glycan array binding signal (z-score),[22],-0.554
same,glycan array binding signal (z-score),[23],-0.543
same,glycan array binding signal (z-score),[24],-0.552
same,glycan array binding signal (z-score),[25],-0.546
same,glycan array binding signal (z-score),[26],-0.501
same,glycan array binding signal (z-score),[27],2.09
same,glycan array binding signal (z-score),[28],2.39
same,glycan array binding signal (z-score),[29],2.17
same,glycan array binding signal (z-score),[30],-0.554
same,glycan array binding signal (z-score),[31],-0.481
same,glycan array binding signal (z-score),[32],0.082
